Source: publication PMC11960969, “Mdga2 deficiency leads to an aberrant activation of BDNF/TrkB signaling that underlies autism-relevant synaptic and behavioral changes in mice” (PLOS Biology, 2025)
These are yes or no findings as the source states them, for the method shown. In cells and extracts the contact can be indirect. Some binding calls cover weakened binding; strength is not graded here. For some assays here: Where a sequence is shown, tags or fusion partners need not be part of it.

The chains behind the UniProt entries cited, without tags or fusion partners. Residues count along the entry.
UniProt Q16620, residues 32-822: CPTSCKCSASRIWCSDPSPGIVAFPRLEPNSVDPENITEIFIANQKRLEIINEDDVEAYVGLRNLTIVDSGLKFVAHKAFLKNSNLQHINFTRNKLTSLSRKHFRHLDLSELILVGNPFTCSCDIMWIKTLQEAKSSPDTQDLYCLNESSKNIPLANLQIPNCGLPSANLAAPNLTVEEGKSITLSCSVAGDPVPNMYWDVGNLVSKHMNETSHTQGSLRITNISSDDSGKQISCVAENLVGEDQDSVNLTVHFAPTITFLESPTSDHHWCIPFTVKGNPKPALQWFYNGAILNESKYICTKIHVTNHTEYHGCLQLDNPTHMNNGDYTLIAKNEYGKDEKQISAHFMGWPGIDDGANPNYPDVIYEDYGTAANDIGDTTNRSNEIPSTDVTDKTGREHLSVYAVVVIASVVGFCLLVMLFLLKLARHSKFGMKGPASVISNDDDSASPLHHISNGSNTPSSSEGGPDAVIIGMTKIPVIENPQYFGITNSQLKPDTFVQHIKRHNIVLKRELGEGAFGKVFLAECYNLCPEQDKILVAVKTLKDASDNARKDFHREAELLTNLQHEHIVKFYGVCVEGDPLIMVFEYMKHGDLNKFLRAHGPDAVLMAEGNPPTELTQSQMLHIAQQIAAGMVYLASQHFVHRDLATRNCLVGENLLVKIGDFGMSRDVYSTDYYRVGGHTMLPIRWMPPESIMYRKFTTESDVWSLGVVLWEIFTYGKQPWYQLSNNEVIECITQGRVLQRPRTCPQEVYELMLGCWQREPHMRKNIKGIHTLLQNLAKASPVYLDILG
UniProt P15209, residues 32-821: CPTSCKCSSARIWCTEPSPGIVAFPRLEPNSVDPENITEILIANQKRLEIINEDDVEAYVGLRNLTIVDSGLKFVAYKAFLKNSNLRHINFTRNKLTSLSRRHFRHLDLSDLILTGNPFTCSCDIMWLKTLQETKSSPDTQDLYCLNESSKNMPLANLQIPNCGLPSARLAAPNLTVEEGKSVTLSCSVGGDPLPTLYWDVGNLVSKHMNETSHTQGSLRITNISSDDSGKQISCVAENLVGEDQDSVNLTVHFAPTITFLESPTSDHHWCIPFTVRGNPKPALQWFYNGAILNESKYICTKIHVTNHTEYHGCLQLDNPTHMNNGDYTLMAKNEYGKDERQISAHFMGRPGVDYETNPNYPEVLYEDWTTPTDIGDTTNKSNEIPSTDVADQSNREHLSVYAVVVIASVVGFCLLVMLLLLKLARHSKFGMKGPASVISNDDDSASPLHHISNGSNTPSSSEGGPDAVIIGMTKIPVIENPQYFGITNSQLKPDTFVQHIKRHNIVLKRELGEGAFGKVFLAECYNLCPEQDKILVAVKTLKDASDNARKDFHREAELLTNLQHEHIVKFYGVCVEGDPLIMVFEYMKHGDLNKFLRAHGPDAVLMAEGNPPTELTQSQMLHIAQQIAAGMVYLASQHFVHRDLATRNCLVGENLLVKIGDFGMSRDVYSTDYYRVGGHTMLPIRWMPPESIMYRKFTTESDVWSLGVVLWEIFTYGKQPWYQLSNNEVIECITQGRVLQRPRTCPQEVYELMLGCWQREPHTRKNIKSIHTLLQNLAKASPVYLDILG

Assays:
[1] = target: Flag-tagged full-length human TrkB (TrkB-Flag) (human) (UniProt Q16620); assay: co-IP; mouse primary neurons transfected with GFP-tagged MDGA2, V930I or ΔMAM (text: co-transfected with TrkB); lysates IP with GFP or an anti-TrkB antibody, immunoblot
[2] = target: TrkB (tyrosine kinase B receptor), endogenous mouse (mouse (endogenous in mouse brain)) (UniProt P15209); assay: co-IP; lysates of mouse primary neurons (Het, KO and WT littermates; WT neurons transfected with GFP, MDGA2-GFP or ΔMAM-GFP), IP with IgG or an anti-BDNF antibody, immunoblot for TrkB
[3] = target: Flag-tagged full-length human TrkB (TrkB-Flag) (human) (UniProt Q16620); assay: co-IP; HEK293T cells co-transfected with Flag-tagged TrkB constructs and GFP-tagged MDGA2 constructs; lysates IP with control IgG, anti-Flag or anti-GFP, immunoblot
[4] = target: TrkB (tyrosine kinase B receptor), endogenous mouse (mouse (endogenous in mouse brain)) (UniProt P15209); assay: co-IP; competition in vivo: 1 μg MDGA2-P2 peptide injected into both hippocampi once per day for 1 week; read-out is the co-IP of TrkB with BDNF from hippocampal lysates; only the binder purified
[5] = target: Flag-tagged full-length human TrkB (TrkB-Flag) (human) (UniProt Q16620); assay: co-IP; competition: P2 peptide (0.1 or 1 μM, 16 h) added to Mdga2+/- neurons transfected with TrkB-Flag; read-out is the co-IP of TrkB-Flag and BDNF; only the binder purified
[6] = target: full-length human TrkB tagged with the N-terminal Venus fragment (TrkB-VN) (human) (UniProt Q16620); assay: split reporter; BiFC with Venus halves in HeLa cells co-transfected for 24 h; confocal microscopy
[7] = target: T1, MDGA2 (MAM domain containing glycosylphosphatidylinositol anchor 2), endogenous mouse (mouse (endogenous in mouse brain)) (UniProt P60755); assay: co-IP; WT mouse brain lysates, IP with an anti-MDGA2 antibody or control IgG, immunoblot
T1 sequence: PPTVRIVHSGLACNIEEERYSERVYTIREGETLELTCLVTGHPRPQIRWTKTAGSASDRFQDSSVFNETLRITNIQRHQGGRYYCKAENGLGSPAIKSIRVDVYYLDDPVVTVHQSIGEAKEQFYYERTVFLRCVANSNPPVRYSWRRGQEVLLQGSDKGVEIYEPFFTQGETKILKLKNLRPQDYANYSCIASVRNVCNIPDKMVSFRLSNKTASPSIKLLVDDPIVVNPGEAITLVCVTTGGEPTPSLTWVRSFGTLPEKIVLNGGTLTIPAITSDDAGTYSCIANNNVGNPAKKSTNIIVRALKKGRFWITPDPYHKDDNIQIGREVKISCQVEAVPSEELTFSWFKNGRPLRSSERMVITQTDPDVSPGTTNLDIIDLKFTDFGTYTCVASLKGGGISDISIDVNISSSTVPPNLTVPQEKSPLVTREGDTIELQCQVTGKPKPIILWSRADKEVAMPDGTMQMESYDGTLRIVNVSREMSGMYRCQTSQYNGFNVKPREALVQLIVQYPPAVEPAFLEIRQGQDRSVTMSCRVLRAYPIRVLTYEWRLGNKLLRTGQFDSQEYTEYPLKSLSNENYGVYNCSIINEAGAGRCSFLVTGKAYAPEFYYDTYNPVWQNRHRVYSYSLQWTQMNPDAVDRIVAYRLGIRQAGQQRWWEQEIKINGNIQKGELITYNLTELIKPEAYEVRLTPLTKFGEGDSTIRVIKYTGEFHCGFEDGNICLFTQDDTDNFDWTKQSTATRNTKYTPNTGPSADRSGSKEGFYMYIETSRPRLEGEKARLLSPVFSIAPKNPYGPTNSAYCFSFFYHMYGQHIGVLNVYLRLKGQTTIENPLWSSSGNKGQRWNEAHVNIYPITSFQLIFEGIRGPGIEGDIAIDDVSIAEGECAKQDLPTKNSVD

B1: GFP-tagged full-length human MDGA2 (MDGA2-GFP) (protein, UniProt Q7Z553 26-931)
chain: PPTVRIVHSGLACNIEEERYSERVYTIREGETLELTCLVTGHPRPQIRWTKTAGSASDRFQDSSVFNETLRITNIQRHQGGRYYCKAENGLGSPAIKSIRVDVYYLDDPVVTVHQSIGEAKEQFYYERTVFLRCVANSNPPVRYSWRRGQEVLLQGSDKGVEIYEPFFTQGETKILKLKNLRPQDYANYSCIASVRNVCNIPDKMVSFRLSNKTASPSIKLLVDDPIVVNPGEAITLVCVTTGGEPAPSLTWVRSFGTLPEKTVLNGGTLTIPAITSDDAGTYSCIANNNVGNPAKKSTNIIVRALKKGRFWITPDPYHKDDNIQIGREVKISCQVEAVPSEELTFSWFKNGRPLRSSERMVITQTDPDVSPGTTNLDIIDLKFTDFGTYTCVASLKGGGISDISIDVNISSSTVPPNLTVPQEKSPLVTREGDTIELQCQVTGKPKPIILWSRADKEVAMPDGSMQMESYDGTLRIVNVSREMSGMYRCQTSQYNGFNVKPREALVQLIVQYPPAVEPAFLEIRQGQDRSVTMSCRVLRAYPIRVLTYEWRLGNKLLRTGQFDSQEYTEYAVKSLSNENYGVYNCSIINEAGAGRCSFLVTGKAYAPEFYYDTYNPVWQNRHRVYSYSLQWTQMNPDAVDRIVAYRLGIRQAGQQRWWEQEIKINGNIQKGELITYNLTELIKPEAYEVRLTPLTKFGEGDSTIRVIKYSAPVNPHLREFHCGFEDGNICLFTQDDTDNFDWTKQSTATRNTKYTPNTGPNADRSGSKEGFYMYIETSRPRLEGEKARLLSPVFSIAPKNPYGPTNTAYCFSFFYHMYGQHIGVLNVYLRLKGQTTIENPLWSSSGNKGQRWNEAHVNIYPITSFQLIFEGIRGPGIEGDIAIDDVSIAEGECAKQDLATKNSVD
binding [1]: binds | binding [2]: binds | binding [3]: binds

KARLLSPVFSIAPKNPYGPTNT [MDGA2-P2 peptide (aa 812-833), label not stated]
binding [4]: binds | binding [5]: binds

B2: full-length MDGA2 tagged with the C-terminal Venus fragment (MDGA2-VC) (protein, UniProt Q7Z553 26-931)
chain: B1 chain
binding [6]: binds

B3: immature BDNF (ImBDNF), endogenous mouse (ligand, UniProt P21237 19-249)
chain: APMKEVNVHGQGNLAYPGVRTHGTLESVNGPRAGSRGLTTTSLADTFEHVIEELLDEDQKVRPNEENHKDADLYTSRVMLSSQVPLEPPLLFLLEEYKNYLDAANMSMRVRRHSDPARRGELSVCDSISEWVTAADKKTAVDMSGGTVTVLEKVPVSKGQLKQYFYETKCNPMGYTKEGCRGIDKRHWNSQCRTTQSYVRALTMDSKKRIGWRFIRIDTSCVCTLTIKRGR
binding [7]: no binding

B4: MDGA2-ΔMAM tagged with the C-terminal Venus fragment (ΔMAM-VC) (domain or fragment, UniProt Q7Z553)
chain: PPTVRIVHSGLACNIEEERYSERVYTIREGETLELTCLVTGHPRPQIRWTKTAGSASDRFQDSSVFNETLRITNIQRHQGGRYYCKAENGLGSPAIKSIRVDVYYLDDPVVTVHQSIGEAKEQFYYERTVFLRCVANSNPPVRYSWRRGQEVLLQGSDKGVEIYEPFFTQGETKILKLKNLRPQDYANYSCIASVRNVCNIPDKMVSFRLSNKTASPSIKLLVDDPIVVNPGEAITLVCVTTGGEPAPSLTWVRSFGTLPEKTVLNGGTLTIPAITSDDAGTYSCIANNNVGNPAKKSTNIIVRALKKGRFWITPDPYHKDDNIQIGREVKISCQVEAVPSEELTFSWFKNGRPLRSSERMVITQTDPDVSPGTTNLDIIDLKFTDFGTYTCVASLKGGGISDISIDVNISSSTVPPNLTVPQEKSPLVTREGDTIELQCQVTGKPKPIILWSRADKEVAMPDGSMQMESYDGTLRIVNVSREMSGMYRCQTSQYNGFNVKPREALVQLIVQYPPAVEPAFLEIRQGQDRSVTMSCRVLRAYPIRVLTYEWRLGNKLLRTGQFDSQEYTEYAVKSLSNENYGVYNCSIINEAGAGRCSFLVTGKAYAPEFYYDTYNPVWQNRHRVYSYSLQWTQMNPDAVDRIVAYRLGIRQAGQQRWWEQEIKINGNIQKGELITYNLTELIKPEAYEVRLTPLTKFGEGDSTIRVIKYSAPVNPHLREQDLATKNSVD
binding [6]: no binding
